PMC4336329 (PLoS ONE, 2015)
Out of some 310,000 compounds screened, about 14,000 (4.5%) showed an effect of 50% or more. Effects have a minus sign here. The list shows a part of the results.

What follows are compounds tested against human ether-à-go-go-related gene (hERG) potassium channel (human, UniProt Q12809) (assay: primary screen, population patch clamp on CHO cells stably expressing hERG).
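Also: peak tail current of the secondary pulse compared with the same well before compound.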

Chain of human ether-à-go-go-related gene (hERG) potassium channel (Q12809 whole entry, looked up): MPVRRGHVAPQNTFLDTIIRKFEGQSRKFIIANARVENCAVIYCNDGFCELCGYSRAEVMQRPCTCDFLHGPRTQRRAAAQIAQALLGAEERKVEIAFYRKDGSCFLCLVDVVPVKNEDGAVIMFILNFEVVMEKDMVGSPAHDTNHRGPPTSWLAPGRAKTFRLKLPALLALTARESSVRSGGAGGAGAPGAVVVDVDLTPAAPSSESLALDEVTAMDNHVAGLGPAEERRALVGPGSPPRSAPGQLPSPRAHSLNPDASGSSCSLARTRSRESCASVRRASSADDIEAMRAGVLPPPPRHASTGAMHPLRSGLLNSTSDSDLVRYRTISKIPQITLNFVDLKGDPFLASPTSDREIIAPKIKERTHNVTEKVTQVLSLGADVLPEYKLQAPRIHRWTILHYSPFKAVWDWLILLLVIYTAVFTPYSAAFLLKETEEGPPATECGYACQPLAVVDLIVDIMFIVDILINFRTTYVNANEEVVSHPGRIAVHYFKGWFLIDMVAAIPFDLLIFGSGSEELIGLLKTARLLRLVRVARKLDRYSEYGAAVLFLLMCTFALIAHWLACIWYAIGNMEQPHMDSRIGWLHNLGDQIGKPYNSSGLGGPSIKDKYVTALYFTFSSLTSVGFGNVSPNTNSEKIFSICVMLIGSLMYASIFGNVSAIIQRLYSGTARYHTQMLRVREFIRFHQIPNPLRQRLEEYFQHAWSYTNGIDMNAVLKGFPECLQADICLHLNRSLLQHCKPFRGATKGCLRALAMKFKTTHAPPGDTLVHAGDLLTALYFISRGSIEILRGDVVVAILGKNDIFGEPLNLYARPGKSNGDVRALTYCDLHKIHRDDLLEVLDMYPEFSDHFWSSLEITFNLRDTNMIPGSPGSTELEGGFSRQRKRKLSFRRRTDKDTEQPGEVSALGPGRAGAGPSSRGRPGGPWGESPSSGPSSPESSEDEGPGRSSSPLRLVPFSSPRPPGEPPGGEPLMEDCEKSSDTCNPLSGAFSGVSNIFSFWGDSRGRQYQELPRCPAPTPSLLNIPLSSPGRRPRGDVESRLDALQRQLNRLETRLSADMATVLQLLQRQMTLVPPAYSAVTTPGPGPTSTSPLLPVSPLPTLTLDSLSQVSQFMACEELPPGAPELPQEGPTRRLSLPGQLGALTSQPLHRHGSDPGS

**Q.** How did the “hERG current change (%, negative = inhibition) at 10uM” value turn out when O=C(NCC1CCCO1)C(=O)N/N=C/c1ccc(O)c(Cl)c1 (centres unmarked) was run?
**A.** 10%

**Q.** How did the “hERG current change (%, negative = inhibition) at 10uM” value turn out when COc1ccccc1C(=O)Nc1nc(N)n(-c2ccccc2)n1 was run?
**A.** 13.8%

**Q.** Which “hERG current change (%, negative = inhibition) at 10uM” value does the source give for CC1=C(C(N)=O)C(c2cccs2)NC(=S)N1 (centres unmarked) here?
**A.** 24.5%

**Q.** Which “hERG current change (%, negative = inhibition) at 10uM” value does the source give for CC1CCC/C=C/C(=O)c2c(O)cc(O)cc2CC(=O)O1 (centres unmarked) here?
**A.** -8.95%

**Q.** Which “hERG current change (%, negative = inhibition) at 10uM” value does the source give for O=C(CCCOc1ccccc1)N1CCc2ccccc2C1 here?
**A.** 0.877%

**Q.** Which “hERG current change (%, negative = inhibition) at 10uM” value does the source give for COc1ccc2cc(CN(CC3CCCO3)C(=O)Nc3ccccc3)c(=O)[nH]c2c1 (centres unmarked) here?
**A.** -33.4%

**Q.** With O=C1C(=Cc2cccn2-c2ccc(O)cc2)C(=O)c2ccccc21 as the compound, how does the “hERG current change (%, negative = inhibition) at 10uM” value read?
**A.** 1.3%

**Q.** Which “hERG current change (%, negative = inhibition) at 10uM” value does the source give for COc1ccc(C(C)=O)cc1CC(=O)Nc1ccccc1-c1ccccc1 here?
**A.** 20%

**Q.** For O=C(CN1CCCCCC1)Nc1cccc(NC(=O)CN2CCCCCC2)c1, which “hERG current change (%, negative = inhibition) at 10uM” value is on record?
**A.** 13%

**Q.** How did the “hERG current change (%, negative = inhibition) at 10uM” value turn out when Cc1ccc2c(CC(=O)OC(C)C(=O)Nc3ncc(Cl)cc3Cl)coc2c1 (centres unmarked) was run?
**A.** -28.2%

**Q.** With c1ccc(-c2nc(-n3ccnc3)nc(-n3ccnc3)n2)cc1 as the compound, how does the “hERG current change (%, negative = inhibition) at 10uM” value read?
**A.** -69.4%

**Q.** With COc1ccc(NC(=O)C2CCCN(S(=O)(=O)c3c(C)[nH]c(=O)[nH]c3=O)C2)cc1OC (centres unmarked) as the compound, how does the “hERG current change (%, negative = inhibition) at 10uM” value read?
**A.** 30.8%

**Q.** How did the “hERG current change (%, negative = inhibition) at 10uM” value turn out when Cc1occc1C(=O)N=Nc1c(O)n(C)c2ccccc12 was run?
**A.** 15.3%

**Q.** Cl.N=c1n(Cc2ccccc2Cl)c2ccccc2n1CC(O)c1ccco1 (centres unmarked) was tested. Which “hERG current change (%, negative = inhibition) at 10uM” value did it give?
**A.** -56.7%

**Q.** How did the “hERG current change (%, negative = inhibition) at 10uM” value turn out when Cc1cc(C)n(CC(=O)NNC(=O)c2ccc(NC(=O)CC#N)cc2)n1 was run?
**A.** 5.56%

**Q.** For Cc1cc(C)nc(N(C#N)Cc2cccc([N+](=O)[O-])c2)n1, which “hERG current change (%, negative = inhibition) at 10uM” value is on record?
**A.** -15.3%

**Q.** Which “hERG current change (%, negative = inhibition) at 10uM” value does the source give for COc1ccc(C2c3[nH]c4ccccc4c3CCN2Cc2ccoc2)c(F)c1 (centres unmarked) here?
**A.** -36.9%

**Q.** COc1ccc(CN(C)CC(=O)Nc2ccc(Cl)cc2C(F)(F)F)c(OC)c1.O=C(O)C(=O)O was tested. Which “hERG current change (%, negative = inhibition) at 10uM” value did it give?
**A.** 2.46%

**Q.** For CCOc1ccccc1C1N(c2ccc(OC)cc2)C(=O)C2CCCN21 (centres unmarked), which “hERG current change (%, negative = inhibition) at 10uM” value is on record?
**A.** 12.1%

**Q.** For O=c1c2cccnc2[nH]c(=S)n1CCCN1CCN(c2ccccc2F)CC1, which “hERG current change (%, negative = inhibition) at 10uM” value is on record?
**A.** -13.7%

**Q.** How did the “hERG current change (%, negative = inhibition) at 10uM” value turn out when CCOc1ccc(OCC)c(NC(=O)CN2CCN(CC)CC2)c1.Cl was run?
**A.** -43.3%

**Q.** Which “hERG current change (%, negative = inhibition) at 10uM” value does the source give for COc1ccc(NC2CCCN(C(=O)CCc3cn[nH]c3)C2)cc1 (centres unmarked) here?
**A.** -14.6%

**Q.** CC(=O)c1ccc(S(=O)(=O)NC(=O)NC2CCCCC2)cc1 was tested. Which “hERG current change (%, negative = inhibition) at 10uM” value did it give?
**A.** 11.3%

**Q.** Which “hERG current change (%, negative = inhibition) at 10uM” value does the source give for CN(Cc1ccc(Cl)cc1Cl)C(=O)c1cccc(S(=O)(=O)N2CCN(c3ccccc3)CC2)c1 here?
**A.** 0.587%

**Q.** With CCOc1cc(N2CCOCC2)c(OCC)cc1NC(=O)COC(=O)CCc1c[nH]c2ccccc12 as the compound, how does the “hERG current change (%, negative = inhibition) at 10uM” value read?
**A.** 1.87%

**Q.** COc1cccc(/C=N/NC(=O)C(=O)Nc2ccccc2OC(F)(F)C(F)F)c1 was tested. Which “hERG current change (%, negative = inhibition) at 10uM” value did it give?
**A.** -0.33%

**Q.** CCCCNC(=O)c1ccc(CS(=O)(=O)c2cccc(C(F)(F)F)c2)o1 was tested. Which “hERG current change (%, negative = inhibition) at 10uM” value did it give?
**A.** -53.5%

**Q.** Which “hERG current change (%, negative = inhibition) at 10uM” value does the source give for COc1ccccc1Nc1nnc(SCC(=O)N2CCCC2)s1 here?
**A.** 1.27%

**Q.** Which “hERG current change (%, negative = inhibition) at 10uM” value does the source give for CCN(CC)S(=O)(=O)c1cccc(NC(=O)CSc2nc3ccccc3[nH]2)c1 here?
**A.** -28.2%

**Q.** How did the “hERG current change (%, negative = inhibition) at 10uM” value turn out when N=c1oc2ccccc2cc1-c1nc2ccccc2c(=O)[nH]1 was run?
**A.** 10.3%

**Q.** How did the “hERG current change (%, negative = inhibition) at 10uM” value turn out when CCCC(=O)Nc1c(-c2ccccc2)c(=O)c(C)nn1-c1ccc(Cl)cc1 was run?
**A.** 2.46%

**Q.** With C=CCNC(=O)CSc1nnc(C(CC)N(C)C)n1C1CCCCC1 (centres unmarked) as the compound, how does the “hERG current change (%, negative = inhibition) at 10uM” value read?
**A.** 13.5%

**Q.** With CC(=O)Nc1cc2c(cc1Br)OCCO2 as the compound, how does the “hERG current change (%, negative = inhibition) at 10uM” value read?
**A.** 21.5%

**Q.** With Cc1onc(-c2ccccc2)c1-c1csc(COc2ccccc2)n1 as the compound, how does the “hERG current change (%, negative = inhibition) at 10uM” value read?
**A.** 11.5%

**Q.** How did the “hERG current change (%, negative = inhibition) at 10uM” value turn out when COc1ccc(CC(=O)NNC(=O)COc2ccc3ccccc3c2)cc1 was run?
**A.** 7.48%

**Q.** COC(=O)C1=C(c2cccc(OCc3ccccc3)c2)C[C@@H]2CC[C@H]1N2C(=O)NNCc1ccccc1 was tested. Which “hERG current change (%, negative = inhibition) at 10uM” value did it give?
**A.** 10.8%

**Q.** Which “hERG current change (%, negative = inhibition) at 10uM” value does the source give for N#CCC(=O)N/N=C/c1ccc(Sc2nc3ccccc3s2)o1 here?
**A.** -0.512%

**Q.** Which “hERG current change (%, negative = inhibition) at 10uM” value does the source give for COc1ccc(Cc2nnc(SCc3nc4ccccc4c(=O)[nH]3)n2C)cc1 here?
**A.** -11.9%

**Q.** How did the “hERG current change (%, negative = inhibition) at 10uM” value turn out when O=C(Nc1ccc(N2CCOCC2)cc1)c1ccc([N+](=O)[O-])cc1 was run?
**A.** 10.4%

**Q.** COc1ccc(-c2nc(N)ncc2Oc2ccccc2Br)c(O)c1 was tested. Which “hERG current change (%, negative = inhibition) at 10uM” value did it give?
**A.** -4.67%

**Q.** Which “hERG current change (%, negative = inhibition) at 10uM” value does the source give for CCOC(=O)Cc1nnc(NC(=O)CCc2ccccc2)s1 here?
**A.** 5.15%

**Q.** How did the “hERG current change (%, negative = inhibition) at 10uM” value turn out when O=C(COc1ccc(Cl)cc1)Nc1ncccn1 was run?
**A.** -5.85%

**Q.** Which “hERG current change (%, negative = inhibition) at 10uM” value does the source give for CNC(=O)C(=O)NCC1OCCN1S(=O)(=O)c1ccc(OC)c(OC)c1 (centres unmarked) here?
**A.** 14.4%

**Q.** For COc1nnc(-c2ccc(N3CCCCC3)c(N)c2)c2ccccc12, which “hERG current change (%, negative = inhibition) at 10uM” value is on record?
**A.** -13%
